Results taken from the supplement of paper PMC12217912.
This is one part of the list. The full chains were built here from the parent and the listed change. Values near 0.05 are background.

B1: TEV protease; numbered along this chain (parent)
chain: MGESLFKGPRDYNPISSSICHLTNESDGHTTSLYGIGFGPFIITNKHLFRRNNGTLVVQSLHGVFKVKDTTTLQQHLVDGRDMIIIRMPKDFPPFPQKLKFREPQREERICLVTTNFQTKSMSSMVSDTSCTFPSGDGIFWKHWIQTKDGQCGSPLVSTRDGFIVGIHSASNFTNTNNYFTSVPKNFMELLTNQEAQQWVSGWRLNADSVLWGGHKVFMVKPEEPFQPVKEATQL

Variants of: B1
Assay: raw area under fraction-flipped curve 0-4 h after induction (AUC4h, not background-subtracted), DNA-recorder readout of cleavage of the substrate (dimensionless); higher = more cleavage of the substrate by the protease variant
Details: temperature: 34 °C; time window: 0-4 h after rhamnose induction
Description: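 In vivo DNA recorder in E. coli TOP10(DE3) ΔrhaA at 34 °C. Each TEVp single-site mutant (parent TEVp 0) is paired with a single-site variant of the 7-mer TEVs (canonical ENLYFQ|S). The substrate sits between flexible linkers in a Bxb1-sfGFP-TEVs-SsrA fusion, so cleavage stabilises Bxb1 and speeds flipping of a recombination array, read by NGS. The value is the raw area under the fraction-flipped curve over 0-4 h after rhamnose induction (AUC4h), with ≥20 reads per time point. It is not background-subtracted; inactive controls average about 0.047.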
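Further: Bxb1 expression induced with 0.2% (w/v) L-rhamnose at OD600 near 0.5, cultures sampled hourly, flipped fraction per protease–substrate barcode pair counted by paired-end Illumina sequencing.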

Row | Variant | area with substrate ENLYFAS | area with substrate ENLYFES | area with substrate ENLYFFS | area with substrate ENLYFGS | area with substrate ENLYFIS | area with substrate ENLYFKS | area with substrate ENLYFLS | area with substrate ENLYFMS | area with substrate ENLYFPS | area with substrate ENLYFTS | area with substrate ENLYFVS | area with substrate ENLYFWS | area with substrate ENLYFDS | area with substrate ENLYFHS | area with substrate ENLYFRS | area with substrate ENLYFSS | area with substrate ENLYFCS | area with substrate ENLYFNS | area with substrate ENLYFYS
1 | I42F | 0.0454 | 0.0529 | 0.0586 | 0.0372 | 0.0398 | 0.0179 | 0.0427 | 0.0508 | 0.0295 | 0.0525 | 0.0621 | 0.0434 | – | – | – | – | – | – | –
2 | I42L | 0.0543 | 0.0497 | 0.0572 | 0.0504 | 0.0541 | – | 0.0497 | 0.0646 | 0.0415 | 0.0595 | 0.0744 | – | 0.06 | 0.0616 | 0.0614 | 0.0594 | – | – | –
3 | I42R | 0.037 | 0.0487 | 0.033 | – | 0.0414 | 0.0498 | – | 0.0529 | 0.0423 | 0.0591 | – | 0.0396 | – | 0.0552 | 0.0454 | 0.04 | 0.042 | 0.0537 | –
4 | I43A | 0.0512 | 0.0402 | 0.0644 | 0.0542 | 0.059 | – | 0.0492 | 0.0592 | 0.0559 | 0.0586 | 0.0596 | 0.0361 | – | 0.0678 | 0.0603 | 0.0529 | 0.0408 | 0.0543 | –
5 | I43L | 0.0582 | 0.0578 | 0.0606 | 0.0481 | 0.0586 | 0.055 | 0.064 | 0.0593 | 0.0587 | 0.0558 | 0.053 | 0.0558 | 0.0438 | 0.0599 | – | 0.0407 | 0.0442 | 0.0545 | –
6 | I43N | 0.0516 | 0.0578 | 0.0543 | 0.0386 | 0.0375 | 0.0639 | – | 0.0406 | – | 0.0437 | 0.0345 | 0.0292 | – | 0.0339 | 0.0526 | 0.0319 | 0.0405 | – | 0.0257
7 | I43Q | 0.0309 | 0.0464 | 0.0555 | 0.0508 | 0.0467 | 0.0572 | – | 0.0424 | 0.042 | 0.0453 | 0.0444 | 0.056 | 0.0421 | 0.0448 | 0.0488 | 0.0541 | 0.0339 | 0.0278 | 0.0369
8 | I43S | 0.0486 | – | 0.0434 | – | 0.0483 | 0.0494 | – | 0.0484 | 0.0486 | 0.06 | 0.0482 | 0.0473 | 0.0469 | 0.0648 | 0.0465 | 0.0443 | 0.0537 | 0.0394 | 0.0466
9 | T44P | 0.0412 | 0.0317 | 0.0617 | 0.0457 | 0.0419 | 0.0453 | 0.0533 | 0.0402 | 0.0461 | 0.0459 | 0.0437 | 0.034 | 0.0419 | 0.0376 | 0.0361 | 0.0194 | 0.0297 | 0.037 | –
10 | T44S | 0.0491 | 0.0496 | 0.0713 | 0.0664 | 0.0554 | – | – | 0.0804 | 0.0631 | 0.0559 | 0.0515 | – | – | 0.0583 | 0.0836 | – | 0.0468 | 0.0515 | 0.0551
11 | N45T | 0.0644 | 0.0627 | 0.0688 | – | 0.0592 | 0.0575 | 0.0622 | 0.0511 | 0.0634 | 0.0639 | 0.0493 | 0.0585 | 0.0596 | 0.0475 | 0.0663 | 0.0667 | 0.0595 | 0.0536 | 0.0671
12 | K46A | 0.0583 | 0.0508 | 0.0702 | – | 0.0471 | 0.0573 | 0.0835 | 0.0695 | 0.0624 | 0.0465 | 0.063 | 0.0341 | 0.061 | 0.0491 | 0.0629 | 0.0533 | 0.0632 | 0.0651 | 0.0543
13 | K46C | 0.0573 | 0.0549 | 0.06 | – | 0.0496 | 0.0596 | – | 0.0587 | 0.0653 | 0.0582 | – | – | 0.0483 | – | 0.0517 | 0.0668 | 0.0647 | – | –
14 | K46M | 0.0455 | 0.0532 | 0.055 | 0.0538 | 0.0575 | 0.0638 | 0.0582 | 0.0603 | 0.0615 | 0.0608 | 0.0534 | 0.0608 | 0.0608 | – | – | 0.0572 | 0.0572 | – | –
15 | K46T | 0.0635 | 0.0608 | 0.0548 | – | 0.058 | 0.057 | 0.0345 | 0.0668 | – | 0.0589 | – | – | 0.0569 | 0.0505 | – | – | 0.0546 | 0.0512 | –
16 | H47E | 0.059 | 0.0579 | – | – | 0.0639 | 0.0887 | – | 0.0595 | 0.0704 | – | – | 0.0504 | 0.0557 | 0.0458 | 0.0611 | 0.0688 | 0.0649 | 0.0427 | –
17 | F49A | 0.0569 | 0.0606 | 0.0636 | – | 0.0581 | 0.0552 | 0.0575 | – | 0.0505 | 0.0595 | – | 0.0594 | 0.051 | 0.0822 | 0.0666 | – | 0.0465 | 0.0656 | –
18 | F49I | 0.0324 | 0.0582 | 0.0672 | 0.0412 | 0.0562 | – | – | 0.0615 | 0.0399 | – | 0.0633 | – | 0.0668 | 0.0489 | 0.059 | 0.0473 | 0.06 | 0.0387 | –
19 | F49M | 0.0483 | 0.0537 | 0.0585 | 0.0504 | 0.0582 | 0.0634 | 0.0569 | 0.0514 | 0.059 | 0.0553 | 0.0483 | 0.0643 | 0.0495 | 0.0469 | 0.0622 | 0.0677 | 0.0541 | 0.058 | 0.0465
20 | R50H | 0.0659 | – | 0.0309 | 0.0635 | 0.0639 | – | – | 0.0662 | – | 0.0623 | 0.0553 | 0.0636 | 0.0625 | 0.0766 | 0.0598 | – | 0.065 | – | –
21 | R50P | 0.0506 | 0.0675 | 0.0722 | 0.0595 | 0.0445 | 0.0661 | – | 0.0603 | 0.0547 | 0.0729 | 0.0761 | 0.0617 | 0.0687 | 0.0645 | – | 0.056 | 0.0639 | 0.0603 | 0.0607
22 | N52C | 0.0676 | 0.0671 | 0.0663 | – | 0.0514 | 0.0715 | 0.058 | 0.0617 | 0.0517 | 0.0568 | 0.0606 | 0.0474 | 0.0661 | 0.0528 | 0.0549 | – | – | 0.052 | –
23 | N53M | 0.0185 | 0.0354 | 0.0564 | 0.0614 | 0.0549 | 0.0634 | 0.0702 | 0.0665 | 0.0569 | 0.0592 | 0.0542 | 0.0558 | 0.0523 | 0.0641 | 0.0661 | 0.0432 | 0.0598 | 0.0549 | 0.064
